Results as given in article PMC9911399, “Two distinct binding modes provide the RNA-binding protein RbFox with extraordinary sequence specificity”.
Residue numbers refer to the chain shown, from its start. Some of the results follow.

T1: RBFOX1 RRM (Homo sapiens, UniProt Q9NWB1 109-208)
T1 sequence: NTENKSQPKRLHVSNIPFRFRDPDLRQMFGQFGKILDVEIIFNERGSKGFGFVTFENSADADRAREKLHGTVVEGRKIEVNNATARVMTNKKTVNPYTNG

B1: ACUACGG (DNA:RNA)
RNA: GGGAGACCGGAAUUCAGAUUGUCCACUACGGUUAAAUCCCGUCGUAGCCACCA
DNA 1: CAATCTGAATTCCGGTCTCCC
DNA 2: TGGTGGCTACGACGGGATT
B2: CGGUCCA (DNA:RNA)
RNA: B1 RNA with A25C, C26G, U27G, A28U, G30C, G31A
DNA 1: CAATCTGAATTCCGGTCTCCC
DNA 2: TGGTGGCTACGACGGGATT
B3: GGCGAAG (DNA:RNA)
RNA: B1 RNA with A25G, C26G, U27C, A28G, C29A, G30A
DNA 1: CAATCTGAATTCCGGTCTCCC
DNA 2: TGGTGGCTACGACGGGATT
B4: UACGUCU (DNA:RNA)
RNA: GGGAGACCGGAAUUCAGAUUGUCCUACGUCUUUAAAUCCCGUCGUAGCCACCA
DNA 1: CAATCTGAATTCCGGTCTCCC
DNA 2: TGGTGGCTACGACGGGATT
B5: AAAGCAC (DNA:RNA)
RNA: B1 RNA with C26A, U27A, A28G, G30A, G31C
DNA 1: CAATCTGAATTCCGGTCTCCC
DNA 2: TGGTGGCTACGACGGGATT
B6: GUACUAU (DNA:RNA)
RNA: B4 RNA with U25G, A26U, C27A, G28C, C30A
DNA 1: CAATCTGAATTCCGGTCTCCC
DNA 2: TGGTGGCTACGACGGGATT
B7: UCCUCCG (DNA:RNA)
RNA: B1 RNA with A25U, U27C, A28U, G30C
DNA 1: CAATCTGAATTCCGGTCTCCC
DNA 2: TGGTGGCTACGACGGGATT
B8: CCUGUAA (DNA:RNA)
RNA: B1 RNA with A25C, A28G, C29U, G30A, G31A
DNA 1: CAATCTGAATTCCGGTCTCCC
DNA 2: TGGTGGCTACGACGGGATT
B9: CUGCUAU (DNA:RNA)
RNA: B4 RNA with U25C, A26U, C27G, G28C, C30A
DNA 1: CAATCTGAATTCCGGTCTCCC
DNA 2: TGGTGGCTACGACGGGATT
B10: CCCGGAU (DNA:RNA)
RNA: B4 RNA with U25C, A26C, U29G, C30A
DNA 1: CAATCTGAATTCCGGTCTCCC
DNA 2: TGGTGGCTACGACGGGATT
B11: UGGGGUG (DNA:RNA)
RNA: B4 RNA with A26G, C27G, U29G, C30U, U31G
DNA 1: CAATCTGAATTCCGGTCTCCC
DNA 2: TGGTGGCTACGACGGGATT
B12: AUUCGUU (DNA:RNA)
RNA: B1 RNA with C26U, A28C, C29G, G30U, G31U
DNA 1: CAATCTGAATTCCGGTCTCCC
DNA 2: TGGTGGCTACGACGGGATT
B13: UGCUAAC (DNA:RNA)
RNA: B4 RNA with A26G, G28U, U29A, C30A, U31C
DNA 1: CAATCTGAATTCCGGTCTCCC
DNA 2: TGGTGGCTACGACGGGATT
B14: GUUCAGU (DNA:RNA)
RNA: B1 RNA with A25G, C26U, A28C, C29A, G31U
DNA 1: CAATCTGAATTCCGGTCTCCC
DNA 2: TGGTGGCTACGACGGGATT
B15: GGUACUG (DNA:RNA)
RNA: B1 RNA with A25G, C26G, G30U
DNA 1: CAATCTGAATTCCGGTCTCCC
DNA 2: TGGTGGCTACGACGGGATT
B16: GUGCCAU (DNA:RNA)
RNA: B1 RNA with A25G, C26U, U27G, A28C, G30A, G31U
DNA 1: CAATCTGAATTCCGGTCTCCC
DNA 2: TGGTGGCTACGACGGGATT
B17: CCACGAC (DNA:RNA)
RNA: B1 RNA with A25C, U27A, A28C, C29G, G30A, G31C
DNA 1: CAATCTGAATTCCGGTCTCCC
DNA 2: TGGTGGCTACGACGGGATT
B18: CCAUACC (DNA:RNA)
RNA: B1 RNA with A25C, U27A, A28U, C29A, G30C, G31C
DNA 1: CAATCTGAATTCCGGTCTCCC
DNA 2: TGGTGGCTACGACGGGATT
B19: AGUACAC (DNA:RNA)
RNA: B1 RNA with C26G, G30A, G31C
DNA 1: CAATCTGAATTCCGGTCTCCC
DNA 2: TGGTGGCTACGACGGGATT
B20: ACCCAGA (DNA:RNA)
RNA: B1 RNA with U27C, A28C, C29A, G31A
DNA 1: CAATCTGAATTCCGGTCTCCC
DNA 2: TGGTGGCTACGACGGGATT
B21: GACCGUC (DNA:RNA)
RNA: B4 RNA with U25G, G28C, U29G, C30U, U31C
DNA 1: CAATCTGAATTCCGGTCTCCC
DNA 2: TGGTGGCTACGACGGGATT
B22: GGGCCAG (DNA:RNA)
RNA: B1 RNA with A25G, C26G, U27G, A28C, G30A
DNA 1: CAATCTGAATTCCGGTCTCCC
DNA 2: TGGTGGCTACGACGGGATT
B23: ACGAUAG (DNA:RNA)
RNA: B1 RNA with U27G, C29U, G30A
DNA 1: CAATCTGAATTCCGGTCTCCC
DNA 2: TGGTGGCTACGACGGGATT
B24: AUCCCUU (DNA:RNA)
RNA: B1 RNA with C26U, U27C, A28C, G30U, G31U
DNA 1: CAATCTGAATTCCGGTCTCCC
DNA 2: TGGTGGCTACGACGGGATT
B25: CGGCUAA (DNA:RNA)
RNA: B4 RNA with U25C, A26G, C27G, G28C, C30A, U31A
DNA 1: CAATCTGAATTCCGGTCTCCC
DNA 2: TGGTGGCTACGACGGGATT
B26: CAAUUCG (DNA:RNA)
RNA: B4 RNA with U25C, C27A, G28U, U31G
DNA 1: CAATCTGAATTCCGGTCTCCC
DNA 2: TGGTGGCTACGACGGGATT
B27: AAAUCGA (DNA:RNA)
RNA: B1 RNA with C26A, U27A, A28U, G31A
DNA 1: CAATCTGAATTCCGGTCTCCC
DNA 2: TGGTGGCTACGACGGGATT
B28: GUGUGGC (DNA:RNA)
RNA: B1 RNA with A25G, C26U, U27G, A28U, C29G, G31C
DNA 1: CAATCTGAATTCCGGTCTCCC
DNA 2: TGGTGGCTACGACGGGATT
B29: AGAGGUA (DNA:RNA)
RNA: B1 RNA with C26G, U27A, A28G, C29G, G30U, G31A
DNA 1: CAATCTGAATTCCGGTCTCCC
DNA 2: TGGTGGCTACGACGGGATT
B30: AAAGGCA (DNA:RNA)
RNA: B4 RNA with U25A, C27A, U29G, U31A
DNA 1: CAATCTGAATTCCGGTCTCCC
DNA 2: TGGTGGCTACGACGGGATT
B31: GUACAGC (DNA:RNA)
RNA: B1 RNA with A25G, C26U, U27A, A28C, C29A, G31C
DNA 1: CAATCTGAATTCCGGTCTCCC
DNA 2: TGGTGGCTACGACGGGATT

The binders below were run against T1, RBFOX1 RRM (assay: EMSA; HiTS-Eq, 1 nM pool, 10 min; buffer printed only for the single-RNA assays: 10 mM Tris pH 7.5, 150 mM NaCl, 3.4 mM EDTA, 0.001% NP-40, 30 C). Conditions: tags: His6 N-terminal (pET28a); label: 5' 32P.
Method in brief: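 A pool of RNA with 7 randomized nucleotides, 5′-radiolabelled and with DNA-annealed flanks, was equilibrated at 1 nM for 10 min in 50 µL with purified RbFox RRM, wild type or mutant, across increasing protein concentrations. Free RNA was separated by 8% native PAGE, excised, reverse-transcribed, barcoded by PCR and sequenced. Relative association constants were obtained from read-count changes of each RNA species versus the control reaction and normalised to the cognate motif.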

Q: B1 was tested. Which binding signal did it give?
A: 0.00242 KA relative to UGCAUGU

Q: B2 was tested. Which binding signal did it give?
A: 0.00384 KA relative to UGCAUGU

Q: How did the binding signal turn out when B3 was run?
A: 0.0205 KA relative to UGCAUGU

Q: Which binding signal does the source give for B4 here?
A: 0.00865 KA relative to UGCAUGU

Q: With B5 as the binder, how does the binding signal read?
A: 0.00515 KA relative to UGCAUGU

Q: How did the binding signal turn out when B6 was run?
A: 0.00435 KA relative to UGCAUGU

Q: Which binding signal does the source give for B7 here?
A: 0.00878 KA relative to UGCAUGU

Q: For B8, which binding signal is on record?
A: 0.00808 KA relative to UGCAUGU

Q: B9 was tested. Which binding signal did it give?
A: 0.0132 KA relative to UGCAUGU

Q: B10 was tested. Which binding signal did it give?
A: 0.00413 KA relative to UGCAUGU

Q: Which binding signal does the source give for B11 here?
A: 0.0422 KA relative to UGCAUGU

Q: With B12 as the binder, how does the binding signal read?
A: 0.00879 KA relative to UGCAUGU

Q: For B13, which binding signal is on record?
A: 0.0162 KA relative to UGCAUGU

Q: Which binding signal does the source give for B14 here?
A: 0.0151 KA relative to UGCAUGU

Q: B15 was tested. Which binding signal did it give?
A: 0.011 KA relative to UGCAUGU

Q: Which binding signal does the source give for B16 here?
A: 0.0111 KA relative to UGCAUGU

Q: Which binding signal does the source give for B17 here?
A: 0.00242 KA relative to UGCAUGU

Q: Which binding signal does the source give for B18 here?
A: 0.00116 KA relative to UGCAUGU

Q: How did the binding signal turn out when B19 was run?
A: 0.00536 KA relative to UGCAUGU

Q: For B20, which binding signal is on record?
A: 0.00381 KA relative to UGCAUGU

Q: Which binding signal does the source give for B21 here?
A: 0.0131 KA relative to UGCAUGU

Q: For B22, which binding signal is on record?
A: 0.0199 KA relative to UGCAUGU

Q: How did the binding signal turn out when B23 was run?
A: 0.0135 KA relative to UGCAUGU

Q: For B24, which binding signal is on record?
A: 0.00521 KA relative to UGCAUGU

Q: Which binding signal does the source give for B25 here?
A: 0.00822 KA relative to UGCAUGU

Q: B26 was tested. Which binding signal did it give?
A: 0.00943 KA relative to UGCAUGU

Q: B27 was tested. Which binding signal did it give?
A: 0.00235 KA relative to UGCAUGU

Q: For B28, which binding signal is on record?
A: 0.00821 KA relative to UGCAUGU

Q: For B29, which binding signal is on record?
A: 0.00817 KA relative to UGCAUGU

Q: Which binding signal does the source give for B30 here?
A: 0.00733 KA relative to UGCAUGU

Q: How did the binding signal turn out when B31 was run?
A: 0.00791 KA relative to UGCAUGU
